{"source": "PubChem BioAssay AID1645882", "about": "(National Center for Advancing Translational Sciences (NCATS), 2021)", "note": "The whole screen tested about 16,000 compounds, of which about 120 (0.75%) were called active. Roughly 4% stayed inconclusive and do not appear here. Calls come from the whole dose curve; as a rule, active = well fitted inhibition curve with a large enough effect; inconclusive = small, poorly fitted or top-dose-only effect; inactive = no such curve, though single readings can be large or run the other way. This is one part of the list. Where a SMILES comes first, the peptide text is derived from it. The star is where a group is joined. Cbz = O=C(OCc1ccccc1)*", "data": [{"biological_target": "Rap guanine nucleotide exchange factor 3 (Homo sapiens) (UniProt O95398)", "sequence (O95398 whole entry, looked up)": "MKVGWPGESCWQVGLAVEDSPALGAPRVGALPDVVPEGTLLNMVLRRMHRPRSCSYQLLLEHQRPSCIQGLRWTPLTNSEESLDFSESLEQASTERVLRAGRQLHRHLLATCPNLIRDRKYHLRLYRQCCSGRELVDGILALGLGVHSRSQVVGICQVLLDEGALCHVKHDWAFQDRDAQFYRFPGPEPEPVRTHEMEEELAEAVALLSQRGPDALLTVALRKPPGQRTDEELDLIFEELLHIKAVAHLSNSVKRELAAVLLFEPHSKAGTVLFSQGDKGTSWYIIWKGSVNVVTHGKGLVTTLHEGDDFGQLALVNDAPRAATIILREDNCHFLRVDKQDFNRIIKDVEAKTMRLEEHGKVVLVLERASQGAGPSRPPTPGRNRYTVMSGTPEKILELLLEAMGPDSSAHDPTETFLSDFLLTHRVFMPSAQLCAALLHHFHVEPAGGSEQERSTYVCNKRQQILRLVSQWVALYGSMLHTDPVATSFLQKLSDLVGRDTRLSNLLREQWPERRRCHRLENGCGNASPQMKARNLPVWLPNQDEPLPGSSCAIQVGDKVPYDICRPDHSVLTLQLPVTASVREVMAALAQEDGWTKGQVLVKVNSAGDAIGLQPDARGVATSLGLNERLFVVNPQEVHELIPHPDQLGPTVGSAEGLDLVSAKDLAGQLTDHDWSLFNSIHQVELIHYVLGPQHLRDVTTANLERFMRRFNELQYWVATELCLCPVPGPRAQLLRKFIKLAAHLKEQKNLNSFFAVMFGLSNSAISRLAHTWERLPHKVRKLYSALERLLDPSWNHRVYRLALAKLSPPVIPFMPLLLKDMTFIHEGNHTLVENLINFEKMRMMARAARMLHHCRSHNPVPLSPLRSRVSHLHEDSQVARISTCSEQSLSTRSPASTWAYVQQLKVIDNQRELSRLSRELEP", "test": "Validation qHTS for antagonist of cAMP-regulated guanine nucleotide exchange factor 3 (EPAC1); note: nearly all actives have a fitted effect of over 75% in size", "conditions": "EPAC1 Rap1B-BODIPY-GDP exchange, fluorescence; series mostly up to 150 µM; activity change, negative = inhibition: at the top concentration", "how_it_was_run": "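EPAC1 (100 nM) mixed with 250 nM RAP1B-BODIPY-GDP and 50 uM GDP; compounds in concentration series, 5 min at room temperature. Fluorescence (ex 480/em 540 nm) read every 5 min for 30 min; normalized to ATA control and DMSO.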", "values": [{"smiles": "c1ccc(CN2CCN(Cc3ccc4c(c3)CN(Cc3c[nH]c5ccccc35)CCO4)CC2)nc1", "activity change, negative = inhibition": "inactive: 10.2%"}, {"smiles": "Cc1ccc(CC(Cc2nc3ccccc3[nH]2)c2nc3ccccc3[nH]2)cc1", "note": "(stereo not given)", "activity change, negative = inhibition": "inactive: 1.41%"}, {"smiles": "O=C(NCCc1ccccc1)[C@@H]1CC=C[C@@H]2CCN(Cc3ccc(Cl)c(Cl)c3)C(=O)[C@@H]21", "activity change, negative = inhibition": "inactive: -5.04%"}, {"smiles": "Cc1ncc2c(c1CNC(=O)/C=C/c1cccs1)CCN(C(=O)C1CCCO1)C2", "note": "(stereo not given)", "activity change, negative = inhibition": "inactive: 5.33%"}, {"smiles": "C1CCC(NC(=NC2C3CC4CC(C3)CC2C4)N2CCOCC2)CC1", "note": "(stereo not given)", "activity change, negative = inhibition": "inactive"}, {"smiles": "O=[N+]([O-])c1ccc(O)c2ncccc12", "activity change, negative = inhibition": "inactive: 1.88%"}, {"smiles": "COc1cccc(CNC(=O)c2c(OC)cc(=O)n3c2CCN(C(=O)C2CC24CCCCC4)CC3)c1", "note": "(stereo not given)", "activity change, negative = inhibition": "inactive: 11.3%"}, {"smiles": "O=C(O)/C=C/c1ccc2c(c1)S(=O)(=O)N(C1CCCC1)[C@H]2CC(=O)O", "activity change, negative = inhibition": "inactive: -10.5%"}, {"smiles": "COc1cc(CNC(=O)CCCCCCC(C)C)ccc1O", "activity change, negative = inhibition": "inactive"}, {"smiles": "CCOC(=O)/C=C1\\CN(Cc2cc(OC)c(OC)c(OC)c2)S(=O)(=O)c2ccccc21", "activity change, negative = inhibition": "inactive: 8.9%"}, {"smiles": "Cc1nc2c([nH]1)c(=O)n(C)c(=O)n2Cc1ccco1", "activity change, negative = inhibition": "inactive"}, {"smiles": "CC(NCCc1ccc(O)cc1)C(O)c1ccc(O)cc1", "note": "(stereo not given)", "activity change, negative = inhibition": "inactive: 7.58%"}, {"smiles": "COc1ccc(NC(=O)N2CC[C@@]3(CCCN(C(=O)c4cnccn4)C3)C2)cc1", "activity change, negative = inhibition": "inactive: 18.1%"}, {"smiles": "FC(F)(F)c1ccccc1-c1cncnc1NCc1cccnc1", "activity change, negative = inhibition": "inactive: 3.43%"}, {"smiles": "CC(C)C(=O)NC(C)c1nnc2n1CCN(Cc1cccc3ncccc13)CC2", "note": "(stereo not given)", "activity change, negative = inhibition": "inactive: -5.13%"}, {"smiles": "Cc1cnc(CNc2ncncc2-c2cccnc2)cn1", "activity change, negative = inhibition": "inactive: 11.5%"}, {"smiles": "Cc1c(C(=O)NCCN2CCC(c3ccccc3)CC2)cnn1-c1nccc(-c2cccs2)n1", "activity change, negative = inhibition": "inactive: -18.4%"}, {"smiles": "Cc1cccc(/C=C\\c2ccccc2)n1", "activity change, negative = inhibition": "inactive: -4.13%"}, {"smiles": "COCCn1c(=O)c(-c2ccc(F)cc2)nc2cnc(Oc3ccc(OC)cc3)nc21", "activity change, negative = inhibition": "inactive: -13.8%"}, {"smiles": "CCC1(C)CC(=O)NC1=O", "note": "(stereo not given)", "activity change, negative = inhibition": "inactive"}, {"smiles": "CC(=O)Nc1ccc(OC(C)=O)cc1", "activity change, negative = inhibition": "inactive: 11.8%"}, {"smiles": "CCCNC(C)(C)COC(=O)c1ccccc1", "activity change, negative = inhibition": "inactive: 0.817%"}, {"smiles": "O=C(O)C[C@H]1c2ccccc2S(=O)(=O)N1c1ccccc1", "activity change, negative = inhibition": "inactive: 22%"}, {"smiles": "O=c1c(-c2ccc(F)cc2)nc2cnc(N3CCOCC3)nc2n1C1CC1", "activity change, negative = inhibition": "inactive: 10.8%"}, {"smiles": "CCc1nc2cc(C(=O)N(C)CC3CCCN(C)C3)cc(NC(=O)c3ccccc3OC)c2n1C", "note": "(stereo not given)", "activity change, negative = inhibition": "inactive: 22.1%"}, {"smiles": "FC(F)(F)c1cc(CN2CC[C@@]3(CCCNC3)C2)cc(C(F)(F)F)c1", "activity change, negative = inhibition": "inactive: 4.23%"}, {"smiles": "O=C(O)Cc1cccc2ccccc12", "activity change, negative = inhibition": "inactive"}, {"smiles": "COCC(=O)N1CCC2(CCCN(Cc3cc(C(F)(F)F)cc(C(F)(F)F)c3)C2)CC1", "activity change, negative = inhibition": "inactive: 2.56%"}, {"smiles": "CC(C)[C@H](NC(=O)OCc1ccccc1)C(=O)N[C@H](C=O)Cc1ccccc1", "note": "(Cbz-Val-Phe-aldehyde)", "activity change, negative = inhibition": "inactive"}, {"smiles": "O=C(c1cnccn1)N1CCC2(CCN(Cc3nccs3)CC2)CC1", "activity change, negative = inhibition": "inactive: 10.5%"}, {"smiles": "OC[C@H]1NC[C@@H](O)[C@@H]1O", "activity change, negative = inhibition": "inactive: 4.26% [at 75.8 µM]"}, {"smiles": "NC(=S)c1ccc[n+]([C@@H]2O[C@@H](COP(=O)([O-])OP(=O)(O)OC[C@H]3O[C@@H](n4cnc5c(N)ncnc54)[C@H](OP(=O)(O)O)[C@@H]3O)C(O)C2O)c1", "note": "(stereo not given in full)", "activity change, negative = inhibition": "inactive: 4.05% [at 75.8 µM]"}, {"smiles": "Cc1c(C(=O)N(C)C2CCOC2)sc2ncnc(NCc3ccc4c(c3)OCO4)c12", "note": "(stereo not given)", "activity change, negative = inhibition": "inactive: 17.6%"}, {"smiles": "O=S(=O)(c1cccc2cnccc12)N1CCCNCC1", "activity change, negative = inhibition": "inactive"}, {"smiles": "COc1cc2nc(N3CCCN(C)CC3)nc(NC3CCN(Cc4ccccc4)CC3)c2cc1OC", "activity change, negative = inhibition": "inactive: 3.7% [at 75.8 µM]"}, {"smiles": "O=c1[nH]/c(=C/c2ccc3c(c2)OCO3)c(=O)[nH]/c1=C/c1ccc2c(c1)OCO2", "activity change, negative = inhibition": "inactive: 10.6%"}, {"smiles": "COc1ccc(CN2CCCC(c3nc(-c4ccncc4)ncc3-c3ccccc3)C2)cc1OC", "note": "(stereo not given)", "activity change, negative = inhibition": "inactive: 17.4%"}, {"smiles": "Nc1nc2c(nc(Br)n2[C@@H]2O[C@H]3COP(=O)(O)O[C@H]3[C@@H]2O)c(=O)[nH]1", "activity change, negative = inhibition": "inactive: -21.7%"}, {"smiles": "O=C(c1cccc(Cn2cccn2)c1)N1CCOc2c(cc(-c3csc4ccccc34)cc2OC2CCOC2)C1", "note": "(stereo not given)", "activity change, negative = inhibition": "inactive: -10.8%"}, {"smiles": "O=C(c1ccco1)N1CCC2(CCCN(c3ccccc3)C2)CC1", "activity change, negative = inhibition": "inactive: 20.5%"}, {"smiles": "CCC[C@H]1COCCS(=O)(=O)N1Cc1ccc(F)cc1", "activity change, negative = inhibition": "inactive: -18.8%"}, {"smiles": "Cc1ccccc1-c1cncnc1Nc1ccccc1", "activity change, negative = inhibition": "inactive: -3.15%"}, {"smiles": "CN(C)CCCc1cc(C(=O)Nc2ccc(-c3ccncc3)cc2)ccc1O", "activity change, negative = inhibition": "inactive"}, {"smiles": "CCNc1ncc2nc(-c3ccccc3)c(=O)n(Cc3ccc(F)cc3)c2n1", "activity change, negative = inhibition": "inactive: -6.84%"}, {"smiles": "NC1[C@H]2CN(c3nc4c(cc3F)c(=O)c(C(=O)O)cn4-c3ccc(F)cc3F)C[C@@H]12", "note": "(stereo not given in full)", "activity change, negative = inhibition": "inactive: 9.1%"}, {"smiles": "CC(=O)OCC(=O)Nc1cc(C#N)cc(NC(=O)COC(C)=O)c1Cl", "activity change, negative = inhibition": "inactive: 22.2%"}, {"smiles": "Cc1noc(C)c1C(=O)N1CCC2(CCCN(c3ncccn3)C2)CC1", "activity change, negative = inhibition": "inactive: 4.31%"}, {"smiles": "Cn1c(=O)c2c(nc(/C=C/c3cccc(Cl)c3)n2C)n(C)c1=O", "activity change, negative = inhibition": "inactive"}, {"smiles": "CCNc1ncc2nc(-c3ccc(OC)cc3)c(=O)n(CCC#N)c2n1", "activity change, negative = inhibition": "inactive: 23.4%"}, {"smiles": "O=C(c1ccncc1)N1CCC2(CC1)CCN(c1cccc(-c3ccccc3)c1)CC2", "activity change, negative = inhibition": "inactive: 1.52%"}]}]}
